From the supplement of paper PMC10126150 come the findings set out here.

This series concerns ATP. Kind of series: switch fluorescence ratio, 500 uM ATP over buffer (Cy3 cluster intensity, sum of 5 cycles each) (fold (ratio)); higher = stronger signal-on switching upon ATP binding; sequences stand for … in TCGTCGGCAGCGTCAGATGTGTATAAGAGACAGTTTTTTTTTTTTTTTTTTTTTTTTT…TC. The following applies: aptamer strand: ATP DNA aptamer (quencher-CACCTGGGGGAGTATTGCGGAGGAAGG + anchor), 100 nM annealed; ATP concentration: 500 uM; one replicate. The procedure, abridged: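 Values give the fluorescence ratio for each switch-domain sequence, averaged from per-cluster ratios of summed target-cycle to summed buffer-cycle Cy3 intensity. The Cy3-labelled switching-strand clusters sat on a modified Illumina MiSeq flow-cell, were annealed to 100 nM quencher-labelled ATP aptamer, and were imaged in selection buffer, then after 15 min with 500 uM ATP at 22 °C. Five cycles ran with NaOH stripping and re-annealing between them, and clusters outside 100-1000 RFU were excluded.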

Values marked as one replicate rest on one cluster of the flow cell; about a third of the high ones do not repeat.
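Note: ATP exposure 15 min at 22 °C before imaging.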

As to AGGAATCAGG, the switch fluorescence ratio is 1.04.
For TGAAGTCATA, the switch fluorescence ratio came to 1.03.
The result for AGGACATCAA reads 1.03; that for TTCCTTTGGT, 0.989.
With CGCATGTCAC, the switch fluorescence ratio came out at 2.82.
Take CCTGGAAGTA: the switch fluorescence ratio stood at 1.
Regarding GCTAGTACAA, the switch fluorescence ratio turned out to be 1.03.
Regarding CATTCGCTCT, the switch fluorescence ratio is 1.54.
Regarding TAGGCCTGT, the switch fluorescence ratio is 0.95.
As to GATGTTTGAT, the switch fluorescence ratio turned out to be 0.972.
As for TAGCGTTGTA, the switch fluorescence ratio was 1.03.
As for CGGGTATTAC, the switch fluorescence ratio amounted to 1.12.
Then CATACTTGGG, with 0.988; and TAATGCTCGT, with 0.968; and CCAAAATCGG, with 0.992.
Turning to TGCCGCCCGA, the switch fluorescence ratio stood at 1.09.
On to TCTTGGCAAG, for which the switch fluorescence ratio stood at 0.973.
The result for AATTCAACCG reads 1.07; that for CCTAACGAAT, 1.11; that for TTACTCCACG, 1.47.
On to GATAAACACT, for which the switch fluorescence ratio came out at 1.03.
As to CCCCTGTGCG, the switch fluorescence ratio worked out at 1.29.
In the case of AAAGCGTTTT, the switch fluorescence ratio came to 1.04.
Consider TATAACACAA, for which the switch fluorescence ratio was found to be 1.08.
For TTAGTGGGT, the switch fluorescence ratio turned out to be 0.988.
Regarding ATTGAACCAT, the switch fluorescence ratio amounted to 0.964.
GCCATCTAAA: the switch fluorescence ratio worked out at 0.962.
In the case of GATCGAAAAC, the switch fluorescence ratio amounted to 1.03.
Consider CATAGGGGTT, for which the switch fluorescence ratio came to 0.96.
In the case of CATTCAAAAC, the switch fluorescence ratio stood at 1.02.
In the case of ATGACGGCAC, the switch fluorescence ratio amounted to 1.3.
On to TCGTTCACCC, for which the switch fluorescence ratio was 1.01.
Turning to TCGGTAGG, the switch fluorescence ratio was 0.964.
Take TATAGGATA: the switch fluorescence ratio stood at 0.968.
With CCAATATATC, the switch fluorescence ratio worked out at 1.31.
Regarding TAGTGCGGGT, the switch fluorescence ratio was 0.977.
With ACCATGACTC, the switch fluorescence ratio worked out at 1.15.
On to ATTCGTCGCC, for which the switch fluorescence ratio turned out to be 1.01.
On to GATCTCTAAT, for which the switch fluorescence ratio was found to be 0.973.
For TTGAAGGTCC, the switch fluorescence ratio is 1.06.
Take ATGCGAACAC: the switch fluorescence ratio was 1.16.
As to GGCTCTTGGT, the switch fluorescence ratio was determined as 0.97.
Regarding TAAGAGCGG, the switch fluorescence ratio was found to be 0.963.
For GGGGTAGTAT, the switch fluorescence ratio worked out at 0.971.
As to TACTACCTTG, the switch fluorescence ratio was 1.04.
Regarding ATAAGCGGGT, the switch fluorescence ratio was determined as 0.943.
On to CGTATGTGTG, for which the switch fluorescence ratio is 0.975.
In the case of ACCCTATCCA, the switch fluorescence ratio is 1.05.
On to GGGGTCGCCC, for which the switch fluorescence ratio amounted to 1.02.
For the sequence TGCCACATCA, the switch fluorescence ratio was found to be 0.957.
ACACTGAGGA: the switch fluorescence ratio is 1.49.
As to CCTGTGGTGG, the switch fluorescence ratio was determined as 1.02.
On to GCCTTCAAGA, for which the switch fluorescence ratio came out at 1.04.
Consider GGACTAACAA, for which the switch fluorescence ratio was found to be 1.07.
Take AGGAAGGCGT: the switch fluorescence ratio was 0.983.
As to CAAAACGGAT, the switch fluorescence ratio was 1.03.
Then CTATGCGTCA, with 1; and ATTTTAGTAA, with 0.984.
On to CACATTGTA, for which the switch fluorescence ratio turned out to be 1.02.
TAGACGGCGT: the switch fluorescence ratio is 0.999.
Consider CTTGTCGCGA, for which the switch fluorescence ratio was 0.984.
Take ATGGTATCC: the switch fluorescence ratio amounted to 1.01.
Then GTTGGGTTTA, with 1.01.
Turning to TATGAGAAAT, the switch fluorescence ratio amounted to 1.02.
With CAAGTGGAAT, the switch fluorescence ratio is 0.979.
Take TTGAGTTATG: the switch fluorescence ratio was determined as 0.967.
The result for ATAGGAGGGG reads 0.998; that for TGTTAATAAT, 1.05.
Then CTATATGCCA, with 0.981.
Take CAGGGCGCGC: the switch fluorescence ratio is 1.05.
For the sequence AATGTATAGG, the switch fluorescence ratio was found to be 0.977.
The result for AATTAGGTCC reads 0.999.
Then AGACGGGCCT, with 1.06; and CATAGAGGAG, with 0.989.
With CGAGTGAATT, the switch fluorescence ratio worked out at 0.94.
The result for GGCGATGAAT reads 1.01; that for GCCTTAAATA, 1.01; that for ACCCGAGTTA, 1.03.
On to AGAGTGACGG, for which the switch fluorescence ratio was determined as 1.01.
Take ATACTCATGA: the switch fluorescence ratio turned out to be 1.05.
Regarding CGCGCACCGT, the switch fluorescence ratio came to 1.06.
Consider CAAGTTACTT, for which the switch fluorescence ratio was 1.08.
Then TCCCCCCGTC, with 0.899.
Then GGGACTGTG, with 1.02.
Consider GGCGGCCGAC, for which the switch fluorescence ratio amounted to 1.01.
The result for AACTTGGCAC reads 1.03; that for TCCATATCGT, 1.02.
In the case of TCATCTGGT, the switch fluorescence ratio came out at 0.991.
The result for GTCTATATTA reads 0.945.
In the case of ACTACTTAGT, the switch fluorescence ratio was 1.05.
Turning to ATCATTCA, the switch fluorescence ratio was 0.987.
As for CGTGGGGTCT, the switch fluorescence ratio turned out to be 0.968.
Consider CGTGTATGAC, for which the switch fluorescence ratio was 1.03.
As for AATGGCCTGC, the switch fluorescence ratio amounted to 0.967.
Then TTTGACCAAA, with 0.994; and ACGGACTTTC, with 1.44.
The result for GACTCCATTA reads 1.08.
Then TCCCAATAGT, with 2.05.
For CCAGTTAGTT, the switch fluorescence ratio is 1.06.
In the case of CACGCCGTC, the switch fluorescence ratio is 0.99.
Regarding TAATAGAGAC, the switch fluorescence ratio came to 0.977.
For TTCTGTTCTT, the switch fluorescence ratio is 1.03.
Turning to GTTAATAATT, the switch fluorescence ratio is 1.03.
Consider CGGTGTTGCG, for which the switch fluorescence ratio amounted to 0.979.
Consider CTGGGGTGCC, for which the switch fluorescence ratio was 1.03.
For the sequence GCCGTTTCA, the switch fluorescence ratio was 1.03.
Take AGAACCGGGA: the switch fluorescence ratio was found to be 1.02.
Take AACGGGAATA: the switch fluorescence ratio was determined as 1.01.
CCACGCCCAG: the switch fluorescence ratio amounted to 1.21.
Turning to TATGATCTGG, the switch fluorescence ratio came to 0.983.
As for GGCATTATTC, the switch fluorescence ratio is 1.04.
Then CAACTTCGTA, with 0.989.
Then CATCAAACGC, with 1.11; and GGATCGGCAT, with 1.06.
With GGGGTAGTGT, the switch fluorescence ratio was 0.992.
GATGCGCTCT: the switch fluorescence ratio was found to be 0.967.
For CTCATGCACC, the switch fluorescence ratio turned out to be 1.49.
AACTAGCGGC: the switch fluorescence ratio was determined as 1.03.
Regarding AGATGGTTAC, the switch fluorescence ratio was 1.04.
The result for TATATAAAT reads 1.01.
